Data taken from the RNAGym collection of RNA variant scans (doi:10.1093/nar/gkz1192).
The source gives no read counts; variants with many changes may rest on few reads.

B1: CPEB3 Ribozyme (parent)
chain: UAACAGGGGGCCACAGCAGAAGCGUUCACGUCGCAGCCCCUGUCAGAUUCUGGUGAAUCUGCGAAUUCUGCUGUAUAUCUC

Variants of: B1
Assay: self-cleavage, relative activity (ratio to wild type); higher = more cleavage; in vitro, sequencing
Outline: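 Libraries of CPEB3 self-cleaving ribozyme mutants came from rounds of error-prone PCR and carried barcodes, which DNA sequencing matched to variants. In vitro transcription used T7 RNA polymerase at 37°C for 5 hours, with a further 15 min in DNase I before EDTA stopped the reaction; the ribozymes cleaved during both steps. The RNA was reverse transcribed with template switching and sequenced on Illumina. Relative activity is the cleaved/total read fraction of a variant divided by that of the unmutated ribozyme, averaged over three batches with at least 5 reads.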

Row | Variant | self-cleavage
1 | UGGCAGGGGGCCACAGCAGAAGCGUUCACGUCGCAGCCCCUGUCAGAUUCUGGUGAACCUGCGAAUUCUGCUGUAUAUCUC [A2G A3G U58C] | 0.61
2 | UGACAGGGGGCCACUGCAGAAGCGUUCACGUCGCAGUCCCUGUCAGAUCCUGGUGAAUCUGCGAAUUCUGCUGCAUAUCUC [A2G A15U C37U U49C U74C] | 0.07
3 | UGACAGGGGGCCUCUGCAGAAGCGUUCACGUCGCAGCCCCUGUCAGAUUCUGGUGAAUCUGCGAAUCCUGCCGUAUAUCUC [A2G A13U A15U U67C U72C] | 0.18
4 | UGACAGGGGGCCACAGCUGAAGUGUUCGCGUCGCAGCCCCUGUCAGAUUCUGGUGAAUCUGCGAAUUCUGCUGUAUAUCUC [A2G A18U C23U A28G] | 0.35
5 | UGACAGGGGGCCACAGCUGAGGCGUUUACGUCGCAGCCCCUGACUGAUUCUGGCGAAUCUGCGAAUUCUGCUGUAUAUCUC [A2G A18U A21G C27U U43A A45U U54C] | 0.26
6 | UGACAGGGGGCCACAGCUGAAGCGUUCACGUCGCAGCCCCUGUCGGAUACUGGUGAAUCUGCGAAUUCCGCUGUAUAUCUC [A2G A18U A45G U49A U69C] | 0.11
7 | UGACAGGGGGCCUCAGCAGAAGCGUCGACGUCGCUGCCCCUGUCAGAUUCUGGUGAAUCUGCGGAUUCUGCUGUAUAUCUC [A2G A13U U26C C27G A35U A64G] | 0.11
8 | UGACGGGGGGCCACAGCCGAAGCGUUCACGUCGCAGCCCCUGCCAGAUUCAGGUGAAUCUGCGAAAUCUGCUGUAUAUCUC [A2G A5G A18C U43C U51A U66A] | 0.1
9 | UGACAGGGGGCCACAGCAGGAGCGUUCACGUCGCAGCCCCUGUCAGAUCCUGGUGAAUCUGCGAAUUCUGCUGUAUAUCUC [A2G A20G U49C] | 0.56
10 | UGUCUGGGGGCCACAGCAGAAGCGUCCACGUCGCAGCCCCCGUCAGUUUCUGGUGAAUCUGCGAAUUCUGCAGUAUAUCUC [A2G A3U A5U U26C U41C A47U U72A] | 0.11
11 | UGGCAGGGGGCCACAGCAGAAGCGUUCACGCCGCAGCCCCUGUCAGAUUCUGGUGAAUUUGCGACUUCUGCUGUAUAUCUA [A2G A3G U31C C59U A65C C81A] | 0.06
12 | UGACAGGGGGCCCCUGCAGAAGCGAUCACGUCGCAGCCCCUGUCAGUUUCUGGUGAAUCUGCGAAUUCUGCUGUAUAUCUC [A2G A13C A15U U25A A47U] | 0.4
13 | UGUCAGGGGGCCACAGCUGAAGCGUUCACGUCGCAGCCCCUGUCAGAUUCUGGUGGAUCUGCGAAUUCUGCCGUAUAUCUC [A2G A3U A18U A56G U72C] | 0.87
14 | UGACAGGGGGCCACAGCUGAAGCGCUCACGUCGCAGCCCCUGACAGAUUCCGGCGAAUCUGCGAAUUCUGCUGUAUAUCUC [A2G A18U U25C U43A U51C U54C] | 0.04
15 | UGACAGGGGGCCACUGCAGAAGCGUUCACGUCGCAGCCCCUGCCAGAUUCUGGCGAAUCAGCGAAUUCUGCUGUAUAUCUC [A2G A15U U43C U54C U60A] | 0.24
16 | UGACAGGGGGCCACUGCAGAGGCGUUCACGUCGCAGCCCCCGUCUGAUUCUGGUGAAUCUGCGAAUUCCGCUGUAUAUCUC [A2G A15U A21G U41C A45U U69C] | 0.13
17 | UGACCGGGGGCCACAGCAGAAGCGUCCACGUCACAGCCCCUGUCAGAUUCUGGUGAAUCUGCGAAUCCUACUGUAUAUCUC [A2G A5C U26C G33A U67C G70A] | 0.1

Row | Variant | self-cleavage
18 | UGACAGGGGGCCACGGCAGAAGCGUUCACGUCGCAGCCCCAGUCAGAUUCUGGUGGAUCUGCGAAUUCUGCCGUAUAUCUC [A2G A15G U41A A56G U72C] | 0.14
19 | UGACUGGGGGCCACAGCAGAAGCGUUCACGUCGCAGCCCCUGUCAGAUUCUGGUGAAUCAGCGAAUUCUGCUGUAUAUCUC [A2G A5U U60A] | 0.18
20 | UGACAGGGGGCCACAGCUGAAGCGUUCACGUCGCAGCCCCUGUCAGGUUCUGGUGAAUCUGCGAACUCUGCUGUAUAUCCC [A2G A18U A47G U66C U80C] | 0.12
21 | UGUCAGGGGGCCACAGCAGAAGCGUUCACGUCGCAGCCCCUGUCAGAUUCUGGCGAAUCUGCGAAUUCUGCUGUAUAUCUC [A2G A3U U54C] | 1.16
22 | UGACAGGGGGCCACAGCGGAAGCGUUCACGUCGCAGCCACUGUCAGAUUCUGGUGAAUCUGCGAAUUCUGCUGUAUAUCUC [A2G A18G C39A] | 0.32
23 | UGACGGGGGGCCACAGCAGAAGCGUCCUCGUCGCAGCCCCUGUCAGAUUCUGGUGAAUCUGCGAGUUCUGCCGUAUAUCUC [A2G A5G U26C A28U A65G U72C] | 0.14
24 | UGACAGGGGGCCGCAGCAGAAGCGUUCACGUCGCAGCCUCUGUCAGGUUCUGGUGAAUCUGCGAAUUCUGCUGUAUAUCUC [A2G A13G C39U A47G] | 0.21
25 | UGACAGGGGGCCACAGCAGAGGCGUUCACGUCGCAGCCCCUGUCAGAUUCUGGUGAAUCAGUGAAUUCUGCUGUAUAUCUC [A2G A21G U60A C62U] | 0.23
26 | UGACAGGGGGCCACAGCAGAGGCGUUCACGUCGCAGCCCCUGUCAGAUUCUGGUGAAUCUGCGAAUUCUGCUGUAUAUCCC [A2G A21G U80C] | 0.97
27 | UGACAGGGGGCCACAGCAGAGGCGUUCACGUCGCAGCCCCUGUCAGAUUCUGGUGAAUCUGCGAAUUCUGCUGUAUAUCAC [A2G A21G U80A] | 0.25
28 | UGACAGGGGGCCACAGCAGUAGCGUUCACGUCGCAGCCCCUGCCAGACUCUGGUGUAUCUGCGAAUUCUGCUGUAUAUCUC [A2G A20U U43C U48C A56U] | 0.04
29 | UGACAGGGGGCCACAGCAGAGGCGUUCACGACGCAGCCCCUGUCAGAUUCUGGUGAAUCUGCGAAUUCUGCUGUAUAUCCC [A2G A21G U31A U80C] | 0.77
30 | UGACAGGGGGCCACGGCGGAAGCGUUCACGUCGCAGCCCCUGUCUGAUUCUGGUGAAUCUGCGAAUUCUGCUGUAUAUCUC [A2G A15G A18G A45U] | 0.44
31 | UGACAGGGGGCCACAGCAGAGGCGUUCACGCCGCAGCCCCUGUCAGAUUCUGGUGAAUCUGCGAAUUCCGCUGUAUAUCUC [A2G A21G U31C U69C] | 0.21
32 | UGACAGGGGGCCACGGCAGAAGCGUUCACGACGCAGCCCCUGUCAGAUUCUGGAGAAUCUGCGAAUUCUGCUGUAUAUCUC [A2G A15G U31A U54A] | 0.48
33 | UGACAGGGGGCCUCAGCAGAAGCGUUCACGUCGCAGCCCCUGUCAGAUUCUGGUGAAUCUGCGAAUUCUGCUGUAUGUCUC [A2G A13U A77G] | 0.63
34 | UGACUGGGGGCCACAGCAGAAGCGUUCGCGUCGCAGCCCCAGUCAGAUUCUGGUGUAUCUGCGAGUUCUGCUGUAAAUCUC [A2G A5U A28G U41A A56U A65G U76A] | 0.07
